Results: patent US20190119348A1, “PARATHYROID HORMONE RECEPTOR 1 ANTAGONIST AND INVERSE AGONIST POLYPEPTIDES AND METHODS OF THEIR USE” (The General Hospital Corporation, priority 2016, published 2019)
Some of these results come from one statement about several compounds together. Where a SMILES comes first, the peptide text is derived from it. [ ]: non-standard residue; d: D form.

Target: T1, PTHR1 (Homo sapiens, UniProt Q03431)
T1 construct: expressed in transfected cells; host or cells: GP-2.3 (HEK-293 stably transfected with hPTHR1 and GloSensor)
T1 sequence (Q03431 27-593): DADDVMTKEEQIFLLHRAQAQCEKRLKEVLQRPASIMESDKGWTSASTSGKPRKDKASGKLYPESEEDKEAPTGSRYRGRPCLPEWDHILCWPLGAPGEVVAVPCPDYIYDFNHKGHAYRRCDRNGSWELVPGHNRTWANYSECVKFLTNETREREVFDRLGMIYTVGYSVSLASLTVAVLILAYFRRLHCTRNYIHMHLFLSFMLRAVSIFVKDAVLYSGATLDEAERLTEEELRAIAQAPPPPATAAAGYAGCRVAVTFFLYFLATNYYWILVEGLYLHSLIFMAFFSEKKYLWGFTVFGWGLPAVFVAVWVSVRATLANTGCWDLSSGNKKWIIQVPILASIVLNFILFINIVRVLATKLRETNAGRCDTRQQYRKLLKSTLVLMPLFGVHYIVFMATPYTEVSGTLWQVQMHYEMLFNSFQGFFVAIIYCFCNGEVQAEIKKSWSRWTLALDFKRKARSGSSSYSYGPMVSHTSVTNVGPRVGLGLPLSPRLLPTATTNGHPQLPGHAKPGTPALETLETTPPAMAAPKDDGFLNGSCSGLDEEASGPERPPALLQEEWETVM
Test: Washout assay: agonist-induced cAMP response after antagonist pre-treatment and rinse (GP-2.3 / SGS-72 cells)
Type: cell-based
Conditions: rinsed three times, then agonist

Compound: CC[C@H](C)[C@H](N)C(=O)N[C@@H](CCC(N)=O)C(=O)N[C@@H](CC(C)C)C(=O)N[C@@H](CCSC)C(=O)N[C@@H](Cc1c[nH]cn1)C(=O)N[C@@H](CCC(N)=O)C(=O)N[C@@H](CCCNC(=N)N)C(=O)N[C@H](Cc1c[nH]c2ccccc12)C(=O)N[C@@H](CCCCN)C(=O)N[C@@H](Cc1c[nH]c2ccccc12)C(=O)N[C@H](C(=O)N[C@@H](CCC(N)=O)C(=O)N[C@@H](CC(=O)O)C(=O)N[C@@H](C)C(=O)N[C@@H](CCCNC(=N)N)C(=O)N[C@@H](CCCNC(=N)N)C(=O)N[C@@H](CCCNC(=N)N)C(=O)N[C@@H](C)C(=O)N[C@@H](Cc1c[nH]c2ccccc12)C(=O)N[C@@H](CC(C)C)C(=O)N[C@@H](Cc1c[nH]cn1)C(=O)N[C@@H](CCCCN)C(=O)N[C@@H](CC(C)C)C(=O)N[C@H](C(=O)N[C@@H](C)C(=O)N[C@@H](CCC(=O)O)C(=O)N[C@H](C(=O)N[C@@H](Cc1c[nH]cn1)C(=O)N[C@H](C(=O)N[C@@H](C)C(=O)N[C@@H](CCC(=O)O)C(=O)N[C@H](C(N)=O)[C@@H](C)CC)[C@@H](C)O)[C@@H](C)CC)[C@@H](C)CC)[C@@H](C)CC [compound 1949, dW12, W23-LA-PTH(5-36)] (H-IQLMHQR[dW]KWIQDARRRAWLHKLIAEIHTAEI-NH2; N-terminus assumed)
- duration of sustained inhibition of agonist cAMP response after washout (pre-treated with antagonist 15 minutes): > 2 h
- inhibition of the cAMP response induced by the subsequently applied PTHR1 agonist ligand (pre-treated with antagonist (e.g., 10 μM, 3.3 μM, 1 μM) 15 minutes): > 90%
